Source: patent US20230312722A1 (NONA BIOSCIENCES SUZHOU, published 2023)

Target: T1, human B7H4 on the cell surface (human, UniProt Q7Z7D3 25-282)
T1 construct: whole, on cells; also called CHOK1/hu B7H4; B7H4 on SK-BR-3
T1 sequence (looked up): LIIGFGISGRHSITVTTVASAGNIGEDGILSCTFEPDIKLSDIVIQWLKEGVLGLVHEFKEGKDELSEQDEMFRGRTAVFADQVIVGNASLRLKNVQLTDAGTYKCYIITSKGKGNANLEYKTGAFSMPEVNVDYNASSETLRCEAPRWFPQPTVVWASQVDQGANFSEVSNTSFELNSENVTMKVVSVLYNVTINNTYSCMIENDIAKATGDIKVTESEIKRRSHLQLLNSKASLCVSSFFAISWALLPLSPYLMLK
Assay: FACS on SK-BR-3 cells
Description: SK-BR-3 cells were digested. T cells were isolated using the human T cell isolation kit (Miltenyi, #130-096-535) as described in the method of the instruction, and resuspended with PBS containing 2% BSA. The cell density was adjusted to 1×10⁶ cells/mL. The cells were seeded in a 96-well V-bottom plate (Corning, #3894) at 100 μL/well, followed by the addition of test antibodies diluted in a 3-fold gradient at a concentration that was 2 times the final concentration, each at 100 μL/well. The cells were incubated at 4° C. for 2 h away from light. Thereafter, the cells in each well were rinsed twice with 100 μL of pre-cooled PBS containing 2% BSA, and centrifuged at 500 g at 4° C. for 5 min, and then the supernatant was discarded. Then each well was added with 100 μL of fluorescent secondary antibody (Alexa Fluor 488-conjugated AffiniPure Goat Anti-Human IgG, Fcγ Fragment Specific, Jackson, #109-545-098, diluted in a 1:500 ratio), and the plate was incubated away from light at 4° C. for 1 h. The cells in each well were washed twice with 100 μL of pre-cooled PBS containing 2% BSA, and centrifuged at 500 g at 4° C. for 5 minutes, and then the supernatant was discarded. Finally, the cells in each well were resuspended with 200 μL of pre-cooled PBS containing 2% BSA, and the fluorescence signal values were read using an ACEA Novocyte3000 flow cytometer.

B1: PR003366 (Fc fusion)
scFv-Fc chain: EIVMTQSPASLSVSPGERATLSCRASQSVSSNLAWYQQKPGQAPRLLIYGASTRATGIPARVSGGGSGTEFTLTISSLQSEDFAVYYCQQYKNWPFTFGPGTKLEIKGGGGSGGGGSGGGGSGGGGSQVQLVQSGAEVKKPGSSMRVSCKASEDTFSSYAISWVRQAPGQGLEWMGGTAPIFGTTNYAQKFQGRVTITADKSTSTAYMELSSLRSEDTAVYYCARGGPYFDYWGQGTLVTVSSGGGAS[human IgG1 Fc not written out]
notes: also called PR003366 (αB7H4 scFv-Fc)
EC50: 26.2 nM | Maximum MFI: 246000
